Hit rate of the full screen: of about 150,000 compounds, about 180 (0.12%) were called active. The shares of active, inactive and inconclusive entries below differ from those in the screen. The call rests on the fitted dose curve; in most records, active means well fitted cell-killing curve with a large enough effect; inconclusive means small, poorly fitted or top-dose-only effect, or effect the other way; inactive means flat fitted curve, though single readings scatter. Potencies beside an inconclusive call are fits to weak or partial responses and may not hold up.
assay: GF-AFC viability counterscreen for inhibitors of alpha-synuclein gene (SNCA) expression; details: HEK-293-SNCA-luc viability, GF-AFC fluorescence, 24 h; activity change, negative = cytotoxicity: at 57.1 µM (top of the series) unless noted; further: nearly all actives have a fitted effect of over 30% in size;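 on activity change, negative = cytotoxicity: 0% = DMSO-treated cells and -100% = medium-only wells without cells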
Method in brief: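 HEK-293-SNCA-luc cells (1500/well) plated 24 h, then exposed 24 h to a dilution series; GF-AFC added 30 min at 37C, fluorescence 405/540 nm; normalised to medium-only and DMSO wells, Hill fit.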
Potency means the concentration at half of the fitted maximal effect; tags describe the fitted curve by direction and shape.

For Cc1ccc2onc(CC(=O)N3CCN(c4cc(Cl)ccc4C)CC3)c2c1, which Potency is on record?
The Potency was inconclusive: 1.26 µM [rising, full curve, poor fit].

Which Potency does the source give for Fc1ccc(-c2nn(-c3ccccc3Cl)c3c2cnc2ccccc23)cc1 here?
The Potency was inconclusive: 15.8 µM [cytotoxic, partial curve, poor fit].

With CCCCCn1c(CCNC(=O)c2ccc(F)cc2)nc2ccccc21 as the compound, how does the Potency read?
The Potency was inconclusive: 39.8 µM [cytotoxic, single point].

For CCn1nc(C)c(CCNC(=O)c2cccc(C3CCNC3)c2)c1C (configuration not stated), which activity change, negative = cytotoxicity is on record?
Its activity change, negative = cytotoxicity is inconclusive: -31.2% [cytotoxic].

With CNC(=O)c1cccc(-c2cnc(Nc3cccc(C(F)(F)F)c3)c3c2CCO3)c1 as the compound, how does the Potency read?
The Potency was inconclusive: 31.6 µM [cytotoxic, partial curve].

Which “activity change, negative = cytotoxicity” value does the source give for COc1ccc(NC(=O)Nc2nnc(C)s2)cc1 here?
The value was inactive: 2.96%.

For COC(=O)Nc1cc(Nc2cc(NC3CC3)c3ncc(C#N)n3n2)c(Cl)c(N2CCN(C)CC2)c1, which Potency is on record?
Its Potency is inconclusive: 4.81 µM [cytotoxic, full curve, poor fit].

For CC(=O)NC1(C)CCN(Cc2ccccc2-c2ccc3c(ccn3C)c2)C1 (configuration not stated), which “activity change, negative = cytotoxicity” value is on record?
Its value is inactive: -3.63% [at 87.6 µM].

With CC(=O)N1CCN(c2nc3c(s2)CC(C(=O)Nc2cc(F)cc(F)c2)CC3)CC1 (configuration not stated) as the compound, how does the Potency read?
Its Potency is inconclusive: 20 µM [cytotoxic, single point].

Which Potency does the source give for CN(C(=O)Cn1cccc1-c1nc(-c2ccccc2)no1)c1ccc(F)cc1 here?
Its Potency is inconclusive: 28.2 µM [cytotoxic, single point].

With COc1cccc(Cn2c(=O)c(-c3ccc(F)cc3)nc3cncnc32)c1 as the compound, how does the Potency read?
The Potency was inconclusive: 12.6 µM [cytotoxic, partial curve, poor fit].

Which Potency does the source give for COC(=O)c1ccc2c(=O)n(CCCCCC(=O)NCc3ccc(Cl)cc3)c(=O)[nH]c2c1 here?
Its Potency is inconclusive: 28.2 µM [cytotoxic, single point].

Which Potency does the source give for O=S(=O)(Nc1nc2n(n1)C(c1ccc(F)cc1)C=C(c1ccccc1)N2)c1ccccc1 (configuration not stated) here?
The Potency was inconclusive: 35.5 µM [rising, partial curve, poor fit].

With COc1ccc(CCNC(=O)c2ccc3c(c2)N(Cc2c(F)cccc2Cl)C(=O)CS3)cc1OC as the compound, how does the Potency read?
Its Potency is inconclusive: 1.41 µM [cytotoxic, full curve].

For COc1ccc(CCNC(=O)CC(c2cccc(OC)c2OC)c2c[nH]c3ccccc23)cc1OC (configuration not stated), which “activity change, negative = cytotoxicity” value is on record?
The value was inactive: 4.89%.

For COC(=O)[C@@H]1Cc2ncn(Cc3ccc(OC)cc3)c2CN1S(=O)(=O)Cc1ccccc1, which Potency is on record?
The Potency was inconclusive: 3.16 µM [cytotoxic, full curve].

With COCCN1CCCN(C(=O)c2cccc(OC)c2)c2ccccc21 as the compound, how does the “activity change, negative = cytotoxicity” value read?
The value was inactive: 3.38%.
